# Whole data set: some 4,100 sequences, median “arbitrary fluorescence units” near 780, cut for the highest 2% near 22,000. This is one part of the list.
# Biological target: T1, ETS1 (UniProt P14921)
# T1 sequence: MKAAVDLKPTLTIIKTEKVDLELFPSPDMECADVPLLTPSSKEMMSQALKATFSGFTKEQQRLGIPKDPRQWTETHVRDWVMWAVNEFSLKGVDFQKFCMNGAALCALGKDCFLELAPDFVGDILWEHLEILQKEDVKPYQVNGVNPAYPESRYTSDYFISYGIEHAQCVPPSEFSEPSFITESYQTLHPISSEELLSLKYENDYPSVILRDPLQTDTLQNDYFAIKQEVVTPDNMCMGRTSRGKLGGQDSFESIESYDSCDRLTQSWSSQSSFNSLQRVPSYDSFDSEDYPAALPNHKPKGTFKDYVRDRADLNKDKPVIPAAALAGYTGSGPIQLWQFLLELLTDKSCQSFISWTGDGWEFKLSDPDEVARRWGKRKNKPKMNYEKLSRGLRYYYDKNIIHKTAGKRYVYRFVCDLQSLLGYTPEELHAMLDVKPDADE
# Assay: ETS1 binding intensity (PBM fluorescence), ETS1 alone (arbitrary fluorescence units); higher = stronger binding
# Settings: ETS1 concentration 1 nM; RUNX1 concentration 0 nM
# Outline: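 Full-length recombinant human ETS1 (1 nM, no RUNX1) was incubated, per standard PBM protocols, on double-stranded Agilent 4 × 180k arrays of 36-bp genomic probes whose RUNX1 partner site was mutated. Bound ETS1 was detected with anti-ETS1 antibody (Cell Signaling Technology 14069) and Alexa488-conjugated secondary antibody, then scanned on a GenePix 4400A. Binding level is spot fluorescence intensity, summarised over replicate spots (four printed per sequence) and not normalised.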
row,Sequence,ETS1 binding intensity
1,GCTGCAGCGGCGGCGAAGAGACAACTTCCGCCGGAG,3340
2,CTGGGGCCTGACGCCCTACGCCTACACTTCCCAGAG,378
3,GGCTGTCTTCAGCGCAGACGGGAAGCTGCTCAGCAC,382
4,TCTAAATCACTTCCTGTTACAGAAACTACAGGCCTG,26900
5,CTATTCGGGAGGCGGGGACAGCGCTTCCGGACCAGG,2120
6,GCGCGGGAGGAAGCCCCCCAATAATTTCGGGGCTTC,518
7,AGCGCTGAGGGGAGGGGGAGCAAGGACCGGACGAGA,792
8,GCCGCTGGGTAGGCGGAAGTAGCCGCTGGCATGGCA,2800
9,GTGCTAGGACACAGGAAGCGATACCAAAAAGAACAT,3260
10,GCGGGCGTGTGAGGGGGCGACGGCGTCCGGGAGGCT,553
11,CTTAGCACTTGTAGTCAGCCTGCTTCCGGCTGTGGC,2100
12,GACACTTCGGTAGCCTCACTATTTCCTGCTTTAGGA,3610
13,CGGCGGCTGCAGGCTGAGCGGCGAGTTTCCGATTTA,299
14,GCGTTTCCCCCTTGGGGTTATAGCAGCCACCTCCTC,1650
15,GGTTGGTTTGCCCACGCCAGTTCCGCCTTCGCCTGC,627
16,CAAGCCAACATCCTGACAGTTTAGAAACTACAGGAG,2950
17,TGTAGTTTGGAGGTTTGGGGGATGTGTTTGTTTTGT,584
18,CGACTACGGCAGTCCGCGGAATTCTTGTATCCTGTC,498
19,CTCTGGGAGGCCGCCGCTTTCCACCGGAAAGAGGGT,555
20,TGTAGTCAGGTAGTTAGGCAGGATGTTTCTCACGGC,688
21,ATGTCTTTAATCACACTGAGCTTCCGGGCCCTGCAC,1540
22,GGAAAGGCAGCAGTGGCAGAGGATGTGCTGGGGGAG,585
23,TGTTGGACCCCAGGCAATTGCCTGTTCAGGAAGAGA,358
24,TCCTTAATGGTTCCGGCGGCAGGGACCCCAGCGACG,970
25,ATGACTTCGAGGAAGTCTTCAGAAACTACAGGCTGA,459
26,GGCGCGAGTAAGCCCTGGGACCCTCATCCTGGGGAG,350
27,GACAACCCCATCCTGCGCTCGCCCGAGGTGTCTCGG,869

row,Sequence,ETS1 binding intensity
1,TGAGAAGGCAGGATAAGTGACCCCATATTTATGCCA,447
2,CCGGGGTAAAGCACGACACGACTCCCTTCCGTGTGG,336
3,CAGCCTAGTGGGAGTTGTAGTTTCCGCAGCTCTGAG,570
4,GCCCGAGGTTCCGGTCCATGGACAGCGGGCGCCGAG,7390
5,CGGGCGCCTGCAGGCGGTGCTGCCGGATGCCCCGCC,455
6,AAGGAACTGTCGTAAGAGAAGGAAGTGCTATCCACT,528
7,GAGCCCGCGGATGTCAGGTGTGCTCACATCTAAACA,431
8,CTTGGGGTCCCCTCGGGTGGTGGCAGGATGTAGGTA,480
9,TTCAGCCTCCCGCCTCAAGCTCCCTTCCGCCGCTCC,384
10,CCCCGGCTGAGGGGCTCTGGGAAGCGGATGCTAGCC,421
11,GCCCTTCCTCCCGGCGCGCAGGGTGAGGTCCCCGAG,2220
12,AAACTACTTTCCTTCCTACCAAAACTACACTAAAGA,824
13,GAGAACTTCCGGTGCGCTCCCCGGGACTGCAGTCCC,46000
14,GCAGTCAGGCCCACGTTCCTCTTACTTCCCGCCATT,440
15,TGCCTTCTGGGAAGTCGGGCGCTCTGCAGCTGTGAC,347
16,TACGCACACGCTTCGGGATCCTTCCGCTCCGGGTTA,644
17,TTCAGTGGGTGCTTACTCGGCATCCTGTTGGGCTTC,1130
18,ACGGAGCCGGGGAAACGCGCCGCCGCCCAGAACGCC,364
19,TCTTGCTGGCCGCCCCTCCCACTTCCCACTGGGCTG,362
20,GTTCGAAAAGCGCCCGGGCGCCTGTGGGAAATGTAG,395
21,TTGGGGTTGAGTTCCCTAGCTGACACTTCCTATATT,495
22,GGGGAGGGACTGCAGGGAGGCGGAAGTCCTTGTTTT,1930
23,TGCAAGAGGAAGCTGGGGTTTGGGGTTCATGTTTTG,699
24,AGCTAGGACAGGATGTGAAAACTACACTGACAAAGT,4610
25,TGCTTGGGGTCCCTCGGCCCGTTTTCCTGCTAGTGG,311
26,AGCGCCCGCTGCCGCTGCCGTGGAAGGAAACGCTGC,384
27,GCAGAAGAGGAAATGGTTTGCCTGTGCGCTGGGGGA,1920

row,Sequence,ETS1 binding intensity
1,ACCATATCCTGAGAATGAACCATCTGGTGGATGCAC,3530
2,ACCTTCCTTCCTGCCTCCCTTGGGGCTCCAGTCCAC,6060
3,GGGTTGCCAGGATGACTCCGCTGTACCCCGCCCCGC,364
4,CCTGTCCCCCATCCTGGGGTCCCTCAGCCTCGCTCT,500
5,GACAAGATTGCAGGTGGGAACCCCATCCGGTTTGTT,1580
6,CGATCCATTCGCTGTCTGCACCCGGAAAGTACACCT,421
7,CCTTGCCTGCAGGCTTTCTGGTCTCCGGATGGAGGC,319
8,ACTGATGCGCTCACAGACAGCAAAGGCAGGAAACAG,476
9,GGACACATCTGGTGTTCTGCAGGATGCAAAAGACCT,366
10,GGCAACAACCCCAAATCAGTGCGCCGGCTTCCTTAT,354
11,GGGAGAGGCCGTGGGAGCGGAAGGAAAATCAGAGAA,593
12,TCAGGAAACCCAGAAACCCTAATTGTCCCCAGAGAA,499
13,TGAGCCTTGGAAGGAAATGATTCACCAAAATACTGT,540
14,TGGGCTTCCTCTCCATTATCCTAATTAGGTGGCTTG,2500
15,GGGCCCTTCCTGTGGCGCCTGCCGAGCTGTCGTTGG,4650
16,AGGCAACTCCCATAAACCCCCGGACGCGGAACACTG,411
17,CTGTTAGTGCTTTGAATCTCACATCCTGTAATGGTT,2380
18,TCACTCCTCTTCCTTCCTGCCACCCTCAGGGTCAGC,3250
19,CCGCTTCCGGCCTTCGCCCGGCTTAGCCGCGTCGCA,34700
20,CTAACTGAGGGTGTTGTTACACAGGATGATTCTTAG,399
21,ACTGTAGTTTATGAAAGAGCTTTTAGGAAACATTTA,376
22,GACGCAGGATGAGCTGGAGGTGTAGAATGGGGTGCT,435
23,CTCACCTCGGGCTAGGGAGCGTGGGATTCCGGACTG,330
24,ATGAAACCAAGACCAAAAAGGAAGGAAACCAGAAAG,451
25,CTCGCCCCATTTCCCGTAAATATCAGCCACGGACCA,3990
26,CCCTCCGGCCCTCAGCCCTGCCCAAACGGAAGTGCT,787

# — the supplement of paper PMC10681739
